The subject of this assay is influenza virus Hubei. Description: microbe, parasite or virus in culture. Format: cell-based. The note with it: unidentified influenza virus, MDCK, 48 h, read-out: NA_Hubei EC50 (μM).
With `O=C1c2c(O)c(=O)cnn2C(C(c2ccccc2)c2ccccc2)C2OCCCN12` (single isomer, unassigned) [Example 19B, 12-benzhydryl-7-hydroxy-3,4,12,12a-tetrahydro-2H-pyridazino[1′,6′:4,5]pyrazino[2,1-b][1,3]oxazine-6,8-dione], the EC50 – broadly, the midpoint of the concentration-response curve – came out at 0.49 µM.

For the compound `O=C1c2c(O)c(=O)cnn2[C@H](C(c2ccccc2)c2ccccc2)[C@@H]2CCCN12` [Example 12, (9aS,10R)-10-benzhydryl-4-hydroxy-8,9,9a,10-tetrahydro-7H-pyrrolo[1′,2′:4,5]pyrazino[1,2-b]pyridazine-3,5-dione], the EC50 is greater than 50 µM. As to `O=C1c2c(O)c(=O)cnn2C(C(c2ccccc2)c2ccccc2)N2CCCCN12` (stereo not shown) [Example 1, 12-benzhydryl-4-hydroxy-7,8,9,10-tetrahydro-12H-dipyridazino[1,2-a:1′,6′-d][1,2,4]triazine-3,5-dione], the EC50 was 0.61 µM.

Take `O=C1c2c(O)c(=O)cnn2[C@H]([C@@H](c2ccccc2)c2cccc(Cl)c2)[C@@H]2CCCN12` [Example 17, (9aS,10R)-10-((S)-(3-chlorophenyl)(phenyl)methyl)-4-hydroxy-8,9,9a,10-tetrahydro-7H-pyrrolo[1′,2′:4,5]pyrazino[1,2-b]pyridazine-3,5-dione]: the EC50 turned out to be 0.29 µM.

With `O=C1c2c(O)c(=O)cnn2[C@H](C(c2cccc(F)c2)c2cccc(F)c2)N2CCCCN12` [Example 8, (R)-12-(bis(3-fluorophenyl)methyl)-4-hydroxy-7,8,9,10-tetrahydro-12H-dipyridazino[1,2-a:1′,6′-d][1,2,4]triazine-3,5-dione], the EC50 is 0.66 µM.

Turning to `O=C1c2c(O)c(=O)cnn2[C@@H](C(c2ccccc2)c2ccccc2)[C@H]2CCCN12` [Example 10, (9aR,10S)-10-benzhydryl-4-hydroxy-8,9,9a,10-tetrahydro-7H-pyrrolo[1′,2′:4,5]pyrazino[1,2-b]pyridazine-3,5-dione], the concentration giving a half-maximal response (EC50) was determined as 0.082 µM. With `O=C1c2c(O)c(=O)cnn2C(C(c2ccc(Cl)cc2)c2ccc(Cl)cc2)N2CCCCN12` (stereo not shown) [Example 3, 12-(bis(4-chlorophenyl)methyl)-4-hydroxy-7,8,9,10-tetrahydro-12H-dipyridazino[1,2-a:1′,6′-d][1,2,4]triazine-3,5-dione] the figure was 0.57 µM; with `O=C1c2c(O)c(=O)cnn2[C@H](C(c2ccccc2)c2ccccc2)[C@H]2CCCN12` [Example 11, (9aR,10R)-10-benzhydryl-4-hydroxy-8,9,9a,10-tetrahydro-7H-pyrrolo[1′,2′:4,5]pyrazino[1,2-b]pyridazine-3,5-dione], 1.6 µM. For `O=C1c2c(O)c(=O)cnn2[C@H](C(c2ccccc2)c2ccccc2)[C@H]2COCCN12` [Example 18, (10aS,11R)-11-benzhydryl-4-hydroxy-7,8,10a,11-tetrahydro-10H-pyridazino[1′,6′:4,5]pyrazino[2,1-c][1,4]oxazine-3,5-dione], the EC50 came to 9.1 µM. With `O=C1c2c(O)c(=O)cnn2C(C(c2cccc(F)c2)c2cccc(F)c2)N2CCCCN12` (stereo not shown) [Example 2, 12-(bis(3-fluorophenyl)methyl)-4-hydroxy-7,8,9,10-tetrahydro-12H-dipyridazino[1,2-a: 1′,6′-d][1,2,4]triazine-3,5-dione], the EC50 came to 0.27 µM. `O=C1c2c(O)c(=O)cnn2[C@@H]([C@H](c2ccccc2)c2cccc(F)c2)[C@H]2CCCN12` [Example 14, (9aR,10S)-10-((R)-(3-fluorophenyl)(phenyl)methyl)-4-hydroxy-8,9,9a,10-tetrahydro-7H-pyrrolo[1′,2′:4,5]pyrazino[1,2-b]pyridazine-3,5-dione]: the EC50 turned out to be 0.092 µM. With `O=C1c2c(O)c(=O)cnn2[C@@H](C(c2cccc(F)c2)c2cccc(F)c2)N2CCCCN12` [Example 9, (S)-12-(bis(3-fluorophenyl)methyl)-4-hydroxy-7,8,9,10-tetrahydro-12H-dipyridazino[1,2-a:1′,6′-d][1,2,4]triazine-3,5-dione] the figure was 0.057 µM; with `O=C1c2c(O)c(=O)cnn2C(C(c2cccc(Cl)c2)c2cccc(Cl)c2)N2CCCCN12` (stereo not shown) [Example 4, 12-(bis(3-chlorophenyl)methyl)-4-hydroxy-7,8,9,10-tetrahydro-12H-dipyridazino[1,2-a:1′,6′-d][1,2,4]triazine-3,5-dione], 0.15 µM. The result for `O=C1c2c(O)c(=O)cnn2C(C(c2ccccc2)c2ccccc2)N2CCCCCN12` (stereo not shown) [Example 6, 13-benzhydryl-4-hydroxy-8,9,10,11-tetrahydro-7H,13H-pyridazino[1′,6′:4,5][1,2,4]triazino[1,2-a][1,2]diazepine-3,5-dione] reads 0.77 µM; that for `O=C1c2c(O)c(=O)cnn2[C@@H](C(c2cccc(F)c2)c2cccc(F)c2)[C@H]2CCCN12` [Example 16, (9aR,10S)-10-(bis(3-fluorophenyl)methyl)-4-hydroxy-8,9,9a,10-tetrahydro-7H-pyrrolo[1′,2′:4,5]pyrazino[1,2-b]pyridazine-3,5-dione], 0.067 µM; that for `O=C1c2c(O)c(=O)cnn2C(C(c2cccc(F)c2)c2cccc(F)c2)N2CCCCCN12` (stereo not shown) [Example 7, 13-(bis(3-fluorophenyl)methyl)-4-hydroxy-8,9,10,11-tetrahydro-7H,13H-pyridazino[1′,6′:4,5][1,2,4]triazino[1,2-a][1,2]diazepine-3,5-dione], 0.42 µM. For `O=C1c2c(O)c(=O)cnn2[C@@H](C(c2ccccc2)c2ccccc2)[C@@H]2CCCN12` [Example 13, (9aS,10S)-10-benzhydryl-4-hydroxy-8,9,9a,10-tetrahydro-7H-pyrrolo[1′,2′:4,5]pyrazino[1,2-b]pyridazine-3,5-dione], the EC50 worked out at 0.34 µM.

As for `O=C1c2c(O)c(=O)cnn2C(C(c2ccc(F)cc2)c2ccc(F)cc2)N2CCCCN12` (stereo not shown) [Example 5, 12-(bis(4-fluorophenyl)methyl)-4-hydroxy-7,8,9,10-tetrahydro-12H-dipyridazino[1,2-a: 1′,6′-d][1,2,4]triazine-3,5-dione], the EC50 stood at 0.27 µM.

On to `O=C1c2c(O)c(=O)cnn2[C@H](C(c2cccc(F)c2)c2cccc(F)c2)[C@H]2CCCN12` [Example 15, (9aR,10R)-10-(bis(3-fluorophenyl)methyl)-4-hydroxy-8,9,9a,10-tetrahydro-7H-pyrrolo[1′,2′:4,5]pyrazino[1,2-b]pyridazine-3,5-dione], for which the EC50 was determined as 0.88 µM.

The values are drawn from patent US10160764B2 (priority 2016, dated 2018).
